From the BET-seq Pho4 binding data (Le et al. 2018)
Some of the results follow. The energies were worked out here from pooled read counts, against the library average; single values are noisy.

molecular target: T1, Pho4 (S. cerevisiae) (UniProt P07270); test: relative binding free energy (BET-seq); higher = weaker binding; settings: reference: library average
T1 sequence: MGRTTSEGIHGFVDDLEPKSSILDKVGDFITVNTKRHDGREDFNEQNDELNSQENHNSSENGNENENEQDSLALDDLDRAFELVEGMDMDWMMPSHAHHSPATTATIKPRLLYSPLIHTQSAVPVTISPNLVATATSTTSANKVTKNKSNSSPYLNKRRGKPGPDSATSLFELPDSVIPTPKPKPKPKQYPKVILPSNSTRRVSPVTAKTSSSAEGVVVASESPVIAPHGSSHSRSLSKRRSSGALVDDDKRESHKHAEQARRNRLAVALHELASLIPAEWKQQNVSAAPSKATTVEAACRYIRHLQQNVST

| Sequence | relative binding free energy |
| --- | --- |
| GTGGACACGTGTGTTA | 0.16 kcal/mol |
| TTTTTCACGTGCTTGT | 0.27 kcal/mol |
| TAGGACACGTGATATG | 0.11 kcal/mol |
| GTGGACACGTGACGTG | 0.09 kcal/mol |
| TAGAGCACGTGGAAGG | 0.04 kcal/mol |
| GGAGTCACGTGGAATT | 0.44 kcal/mol |
| TATAGCACGTGATATT | 0.16 kcal/mol |
| TTGGGCACGTGGATGA | 0.01 kcal/mol |
| ATGTCCACGTGGATTG | -0.07 kcal/mol |
| GTCGTCACGTGTGCTG | 0.07 kcal/mol |
| GGTATCACGTGGCAGC | 0.29 kcal/mol |
| TAACTCACGTGGTGTT | 0.22 kcal/mol |
| TTCGGCACGTGAGGTT | 0.2 kcal/mol |
| CGTGGCACGTGGAAAG | -0.02 kcal/mol |
| TAAGGCACGTGGTGCA | -0.16 kcal/mol |
| TATAACACGTGAATTG | 0.17 kcal/mol |
| ACTGCCACGTGTGTTT | 0.13 kcal/mol |
| ATGTGCACGTGGTGTA | -0.17 kcal/mol |
| TTTAGCACGTGGCTCG | -0.08 kcal/mol |
| CGGGTCACGTGATGTG | 0.19 kcal/mol |
| ATGGGCACGTGTGGCC | -0.12 kcal/mol |
| TTAACCACGTGTAGTT | -0.14 kcal/mol |
| TTGTTCACGTGAATCG | 0.33 kcal/mol |
| TTGAGCACGTGGGCGG | -0.2 kcal/mol |
| TTGCACACGTGGGATA | -0.02 kcal/mol |

| Sequence | relative binding free energy |
| --- | --- |
| ATCATCACGTGTGAGG | 0.18 kcal/mol |
| GATTGCACGTGTAATA | 0.22 kcal/mol |
| TCAGGCACGTGTTAAT | -0.02 kcal/mol |
| TTAATCACGTGGTTCA | -0.01 kcal/mol |
| GTTGGCACGTGCACGG | -0.03 kcal/mol |
| CGATGCACGTGGTGGG | -0.09 kcal/mol |
| AACGGCACGTGATGTT | 0.03 kcal/mol |
| TGAGTCACGTGTATTC | 0.18 kcal/mol |
| TGTATCACGTGTTAAT | 0.09 kcal/mol |
| AAGAACACGTGGTTGG | -0.13 kcal/mol |
| CGATGCACGTGGTTAT | 0 kcal/mol |
| TTGGACACGTGCGTAT | 0.03 kcal/mol |
| AGGATCACGTGGCGGG | -0.02 kcal/mol |
| GTTTGCACGTGCAGTA | 0.08 kcal/mol |
| AAGTTCACGTGGTGTA | 0.18 kcal/mol |
| ATTTTCACGTGGAGGG | 0.19 kcal/mol |
| GGGAACACGTGAGGTG | 0.34 kcal/mol |
| TAGCACACGTGGGGTA | -0.18 kcal/mol |
| AATGGCACGTGAGGGC | 0.09 kcal/mol |
| CTATGCACGTGGATAT | -0.01 kcal/mol |
| AGTTTCACGTGTTTGA | 0.21 kcal/mol |
| TTTTGCACGTGTTACT | 0.05 kcal/mol |
| GGTAACACGTGACTGG | 0.16 kcal/mol |
| ATTGGCACGTGTATCA | -0.06 kcal/mol |
| TAATTCACGTGGTAGT | 0.13 kcal/mol |

| Sequence | relative binding free energy |
| --- | --- |
| GCTTTCACGTGGGCTG | 0.26 kcal/mol |
| ACGGGCACGTGGGATT | -0.05 kcal/mol |
| GGGGCCACGTGCGTAA | -0.03 kcal/mol |
| TGTTACACGTGAGGTC | 0.28 kcal/mol |
| TGGGGCACGTGACGAT | -0.01 kcal/mol |
| GTTTACACGTGCGGCG | 0.13 kcal/mol |
| TGTAACACGTGCTGGA | -0.06 kcal/mol |
| AGTGCCACGTGAAGGG | 0.14 kcal/mol |
| GTGTGCACGTGTAAAA | 0.13 kcal/mol |
| ATGGGCACGTGCAGAT | -0.13 kcal/mol |
| ATAGTCACGTGTCGTT | 0.05 kcal/mol |
| TTTGACACGTGCATGG | 0 kcal/mol |
| TTTCACACGTGGAGTT | 0.04 kcal/mol |
| TTATGCACGTGTTTAT | 0.01 kcal/mol |
| TTAGTCACGTGTTCAG | 0.08 kcal/mol |
| TGCGGCACGTGCTTGA | -0.09 kcal/mol |
| TTTCTCACGTGCGAGG | 0.29 kcal/mol |
| CGTTACACGTGGATTT | 0.15 kcal/mol |
| TCTTACACGTGGGTTG | 0.08 kcal/mol |
| GTGGGCACGTGATGGG | 0.09 kcal/mol |
| TGTATCACGTGTAGTT | 0.12 kcal/mol |
| AATCGCACGTGGAGTT | 0.09 kcal/mol |
| GATTACACGTGATGTT | 0.13 kcal/mol |
